Assay results reported in PubChem BioAssay AID488969 (Vanderbilt High Throughput Screening Facility, 2010).
In all, about 110,000 compounds were measured (“z-score”: median about -0.1, highest 2% from about 2 on). This is one part of the list. The source made the active and inactive calls.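 The calls were made as follows: active = z-score in the third read window above 3 or below -3; inactive = the rest.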

Molecular target: Metabotropic glutamate receptor 8 (Rattus norvegicus) (UniProt P70579)
Experiment: rat mGluR8 modulators via GIRK flux, primary screen, cell-based, thallium flux, HTS (AID 488969)
Settings: HEK293 rat mGluR8, GIRK (G protein-gated inwardly rectifying potassium channel) thallium flux, FluoZin2; at 10 µM; stronger effect = higher value; submaximal glutamate (EC20) added with thallium

Sequence of UniProt P70579 (P70579 whole entry, looked up): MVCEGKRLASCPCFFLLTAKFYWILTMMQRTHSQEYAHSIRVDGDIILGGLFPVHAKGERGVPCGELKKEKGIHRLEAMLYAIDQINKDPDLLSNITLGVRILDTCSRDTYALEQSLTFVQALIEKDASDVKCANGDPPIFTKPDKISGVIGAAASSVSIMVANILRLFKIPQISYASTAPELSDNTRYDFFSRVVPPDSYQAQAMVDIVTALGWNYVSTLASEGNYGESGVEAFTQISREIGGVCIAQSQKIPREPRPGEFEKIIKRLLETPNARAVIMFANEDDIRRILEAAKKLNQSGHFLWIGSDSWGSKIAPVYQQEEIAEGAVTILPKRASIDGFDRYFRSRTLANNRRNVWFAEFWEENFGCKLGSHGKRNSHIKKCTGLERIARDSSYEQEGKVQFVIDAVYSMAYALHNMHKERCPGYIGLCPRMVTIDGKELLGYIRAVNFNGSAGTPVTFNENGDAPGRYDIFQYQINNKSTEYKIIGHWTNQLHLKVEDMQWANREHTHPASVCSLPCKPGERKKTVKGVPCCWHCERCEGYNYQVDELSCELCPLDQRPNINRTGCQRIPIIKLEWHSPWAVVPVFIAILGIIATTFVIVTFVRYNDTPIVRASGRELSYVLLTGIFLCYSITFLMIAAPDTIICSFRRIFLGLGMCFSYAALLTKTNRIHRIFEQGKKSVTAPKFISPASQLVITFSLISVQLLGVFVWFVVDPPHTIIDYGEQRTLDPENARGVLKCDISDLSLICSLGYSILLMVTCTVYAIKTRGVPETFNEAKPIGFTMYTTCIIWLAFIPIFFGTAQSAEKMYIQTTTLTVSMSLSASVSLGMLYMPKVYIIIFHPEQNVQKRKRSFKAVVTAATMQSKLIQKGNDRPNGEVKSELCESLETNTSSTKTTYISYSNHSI

Row | SMILES | z-score
1 | CC(OC(=O)CCCCCN=C1NS(=O)(=O)c2ccccc21)C(=O)Nc1cc(Cl)cc(Cl)c1 (stereo unspecified) | -0.581
2 | CCOC(=O)N1CCC(NC(=O)c2ccc3c(c2)N(CC)CCS3)CC1 | -0.235
3 | CCn1c(=O)c(=O)[nH]c2cc(C(=O)Nc3ccc(S(=O)(=O)N4CCCC4)cc3)ccc21 | -0.219
4 | CCOC(=O)Cc1nnc(NC(=O)c2ncn[nH]2)s1 | 0.485
5 | COc1ccccc1N1CCN(CC(=O)Nc2ccc(CN3CCCCC3)cc2)CC1 | -0.246
6 | O=[N+]([O-])c1ccc(OC/C=C2\Oc3ccc([N+](=O)[O-])cc3C2N2CCOCC2)cc1 (stereo unspecified) | -0.155
7 | CCC(=O)Nc1nc2ccccc2n1CCN(C)C | -0.224
8 | COCCn1c(=O)[nH]c2cc(C(=O)NC(C)C)ccc2c1=O | 0.167
9 | Cc1ccc2nc(SCc3nc4c(cnn4-c4ccccc4)c(=O)[nH]3)[nH]c2c1 | -0.0689
10 | Cc1ccccc1OCc1nc2ccc(S(=O)(=O)N3CCOCC3)cc2[nH]1 | 0.132
11 | Nc1cc(=O)nc(SCC(=O)Nc2cccc3ccccc23)n1CCc1ccccc1 | -0.219
12 | O=C(c1cnccn1)N(c1ccccc1)C1(C(=O)NC2CCCCC2)CCCCC1 | 0.313
13 | CCCCNC(=O)N(O)C1N(CCCC)C(=O)N(CC(=O)OC)C1(C)C (stereo unspecified) | 0.604
14 | COc1cccc2cc(C(=O)N3CCN(c4ccccc4F)CC3)c(=O)oc12 | -0.546
15 | Cc1ccc(C(CC(=O)O)Nc2nc(N3CCCCC3)nc(N3CCCCC3)n2)cc1 (stereo unspecified) | -0.729
16 | O=C(NC(=O)c1ccccc1)OCC(F)(F)F | -0.338
17 | O=c1oc(-c2ccc(Br)o2)nc2ccccc12 | active: 5.63
18 | CCOc1cc(CNn2nnnc2N)cc(Cl)c1OCC(=O)NC(C)(C)C | 0.0889
19 | C#CCSc1nc2ccccc2n1C(=O)c1ccc(S(=O)(=O)N2CCCCC2)cc1 | -0.221
20 | CCOC(=O)Cc1csc(N/C(=N/S(=O)(=O)c2ccc(Cl)cc2)c2ccccc2)n1 | -0.123
21 | COCCSc1ccccc1C(=O)Nc1ccncc1 | 0.236
22 | Cc1ccsc1C=Nc1c(C)n(C)n(-c2ccccc2)c1=O | 0.106
23 | O=C1C2C3C=CC(C3)C2C(=O)N1Cc1cccnc1 (stereo unspecified) | 0.0453
24 | COc1ccc(NC(=O)C2C(=O)NC3(C)CC2c2ccccc2O3)cc1 (stereo unspecified) | -0.312

Row | SMILES | z-score
25 | CN(C)S(=O)(=O)N(CC(=O)Nc1cccc(F)c1)c1ccccc1 | 0.587
26 | O=C(NCc1ccco1)C1(c2ccc(Cl)cc2)CCCC1 | -0.103
27 | CNC(=O)c1ccc(OC2CSC2)cc1 | 0.829
28 | O=C(NC(=S)Nc1nc(-c2ccccc2)cs1)c1cccs1 | 1.03
29 | CC1=CN2C(=N)/C(=C\c3cn(CCCOc4ccccc4)c4ccccc34)C(=O)N=C2S1 | -0.442
30 | O=C(Nc1cccnc1)c1cccc(S(=O)(=O)N2CCOCC2)c1 | 0.00196
31 | CCOC(=O)c1c(-c2ccccc2)csc1NC(=S)NC | active: 7.44
32 | O=S(=O)(c1ccc(Br)cc1)n1c(Cc2ccccc2)nc2ccccc21 | 0.0838
33 | Brc1cccc(Cn2c(-c3cncs3)nc3ccccc32)c1 | -0.0297
34 | Cc1nn(C)c(C)c1NC(=O)Nc1cccc(C(F)(F)F)c1 | -0.0638
35 | COc1cccc(OC)c1C(=O)NC(=S)Nc1ccc2c(c1)Cc1ccccc1-2 | 0.243
36 | Cc1ccc(NC(=S)Nc2c(C)n(C)n(-c3ccccc3)c2=O)cc1 | 0.0715
37 | CCCn1c(SCC(=O)N2c3ccc(F)cc3CCC2C)nnc1-c1ccccn1 (stereo unspecified) | -0.821
38 | CCCN(CC1CC1)C(=O)CSc1nnc(-c2cc(-c3cccs3)nc3ccccc23)o1 | -0.177
39 | C=CCc1c(C)nc(C)nc1N/N=C/c1ccccc1 | -0.683
40 | CCCCC1CC(CSc2ncn[nH]2)OC1=O (stereo unspecified) | -0.0735
41 | CC(C)Cc1ccc(C(C)C(=O)OCC(=O)c2c[nH]c3ccccc23)cc1 (stereo unspecified) | 0.102
42 | CN(C)CCNC(=O)c1cc2c(=O)n(C)c3ccccc3c2n1C | 0.703
43 | CC(=O)Nc1ccc(S(=O)(=O)NNC(=O)c2ccc(S(=O)(=O)N3CCCCC3)cc2)cc1 | 0.179
44 | COc1ccc2cc(C(=O)OC(C)C)sc(=O)c2c1OC | -0.229
45 | CCCCC(CC)C(=O)Nc1ccccc1C(=O)NC(C)C (stereo unspecified) | -0.0261
46 | Cc1noc(C)c1S(=O)(=O)N1CCCC(C(=O)N2CCc3ccccc3C2)C1 (stereo unspecified) | -0.336
47 | CCOc1nnnc2c1sc1nc(N3CCOCC3)c3c(c12)CC(C)(C)OC3 | 0.0677
48 | CCOC(=O)N1CCN(Cc2ccccn2)CC1 | 0.486

Row | SMILES | z-score
49 | COc1ccc(OC)c2c1sc(=NC(=O)C(C)C)n2C | -0.638
50 | O=C(NCN1C(=O)C2C3C=CC(C3)C2C1=O)Nc1nccs1 (stereo unspecified) | 0.00383
51 | CCn1c(COc2ccc3c(c2)OCO3)nnc1SCC(=O)c1ccccc1 | 0.465
52 | COc1ccc(OC)c(C2CC(=O)c3c([nH]c(C(=O)OC(C)C)c3C)C2)c1 (stereo unspecified) | -0.417
53 | CCOC(=O)c1c(-c2cccs2)csc1NC(=O)CN1CC(C)OC(C)C1 (stereo unspecified) | 0.866
54 | COc1cc([N+](=O)[O-])ccc1NC(=O)COC(=O)c1n[nH]c2ccccc12 | -0.589
55 | CCOC(=O)c1c(-c2cccs2)csc1NC(=O)CCCC(=O)O | 0.175
56 | COCCn1c(=S)[nH]c2ncccc2c1=O | 0.35
57 | CC(OC(=O)c1ccccc1Nc1ccc(SC(F)F)cc1)C(N)=O (stereo unspecified) | -0.225
58 | CNc1ncc(C(=O)c2ccc(Cl)c(Cl)c2)s1 | 0.129
59 | O=S(=O)(Cc1ccccc1Cl)NCCOc1ccccc1 | 1.83
60 | FC(F)(F)C1=CC(c2ccc(Cl)cc2)=NCCN1 | 0.132
61 | CCCCNS(=O)(=O)c1ccc(NC(=O)c2c(-c3ccccc3Cl)noc2C)cc1 | 0.0339
62 | CCOC(=O)N1CCN(C(=S)Nc2ccccc2C)CC1 | 0.316
63 | OCCNc1ncnc2ccc(Br)cc12 | 1.8
64 | O=C(CC1Oc2ccccc2NC1=O)NCCCN1CCN(Cc2ccccc2)CC1 (stereo unspecified) | -0.0767
65 | CCOc1ccccc1C(=O)N(CN1CCCC1=O)c1cccc(Cl)c1 | -0.453
66 | CCCn1c(CN2CCN(c3cccc(Cl)c3)CC2)nc2c1c(=O)n(C)c(=O)n2C | -0.255
67 | O=[N+]([O-])c1cc(S(=O)(=O)C(F)(F)F)ccc1N1CCN(c2ccccc2)CC1 | -0.869
68 | COC(=O)CCC(=O)Nc1ccc(NC(C)=O)cc1 | 0.0981
69 | COc1ccc(/C=C/C(=O)Nc2ccc(N3CCOCC3)cc2)cc1 | -0.219
70 | COCCCNC(=O)CN1CCN(Cc2ccc(Cl)cc2)C1=O | -0.115
71 | O=C1CC(Sc2ncccn2)C(=O)N1c1ccccc1 (stereo unspecified) | 0.494
